The supplement of paper PMC3334620
Over roughly 33,000 sequences, “E-score (-0.5 to 0.5)” has its median near -0.035; the highest 2% begin near 0.34. Some of the results follow.

molecular target: T1, Mot3 (UniProt P54785); experiment: PBM E-score (8-mer binding enrichment) (E-score (-0.5 to 0.5)); higher = stronger / more preferred TF binding; most listed sequences are background and not binding sites; settings: protein concentration: 200 nM; construct: GST-full length
T1 sequence: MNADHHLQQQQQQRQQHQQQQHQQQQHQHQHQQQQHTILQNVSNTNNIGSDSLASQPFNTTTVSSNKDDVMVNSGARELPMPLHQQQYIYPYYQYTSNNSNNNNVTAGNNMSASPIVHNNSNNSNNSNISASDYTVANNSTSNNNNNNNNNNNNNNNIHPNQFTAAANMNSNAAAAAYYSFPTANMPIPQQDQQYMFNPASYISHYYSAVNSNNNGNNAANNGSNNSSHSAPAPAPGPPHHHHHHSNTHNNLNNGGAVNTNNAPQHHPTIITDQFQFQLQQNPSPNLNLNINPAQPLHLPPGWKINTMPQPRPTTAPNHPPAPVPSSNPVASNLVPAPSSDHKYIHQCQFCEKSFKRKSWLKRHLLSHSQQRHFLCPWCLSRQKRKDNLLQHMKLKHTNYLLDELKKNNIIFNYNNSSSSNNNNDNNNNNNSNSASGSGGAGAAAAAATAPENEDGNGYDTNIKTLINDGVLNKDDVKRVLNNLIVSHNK
How it was run: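 Masliner-normalised scans of fluorescent anti-GST signal were the basis for scoring. That signal came from GST-tagged yeast transcription factors applied at about 100-200 nM to double-stranded universal all-10-mer Agilent arrays on fresh or once-stripped slides. Each ungapped eight-base word, pooled with its reverse complement, received an E-score from the Universal PBM Analysis Suite.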

Sequence	PBM E-score
ACCGGTAT	-0.135
CGACTCAA	0.0985
GTCCCCGA	-0.00634
CGACGTAA	0.261
AAGATAAC	0.226
TGCCCTAA	-0.0162
ACTTTTTA	0.0914
CGGTGTCC	-0.376
GCAGCGCC	-0.0844
ACGTAGCT	-0.0294
GCAACGCA	-0.0525
CTGGGTGA	-0.0611
GGCGTGTA	0.383
ATCGTAAA	0.146
CACCTTTC	-0.0989
AGAGCAAT	-0.16
AAGAGCGG	-0.171
TCACCCGA	-0.0973
ATGGTCCC	-0.135
CGGTACTC	-0.0673
ATATTTAA	0.0932
GACATTGC	0.00735
ATCCTGTC	-0.0352
ATAGCTCA	-0.059
AACATAGT	0.241

Sequence	PBM E-score
CACTAAGA	0.0619
CGGGCCAA	-0.373
GCATAAAC	0.0484
CACATCAC	-0.0113
AAGAGGAC	-0.25
CTAAGTAC	0.101
AGCTGATA	-0.0692
AAAAAGAC	-0.0453
TCAGACGA	-0.216
CTTATCCC	-0.0598
CGTCGGGC	-0.305
GAACTAAC	-0.0148
CAGTGCCC	0.00404
AATACTCC	-0.144
ATCCATCA	-0.0789
GGTCAGAC	-0.242
GCCTCTAA	0.0682
CGATAACC	-0.189
CCTTTCCA	-0.151
GAAGCGTA	-0.137
CGGTTATA	-0.0889
CTGCCCGC	-0.114
GCACGGGA	-0.112
GACCTTTA	0.0737
AATCTATC	-0.122

Sequence	PBM E-score
AACTGGAT	-0.153
ACTGAGGC	-0.119
CCTTTACG	0.172
AATGGAAT	0.0802
CTGAAGCC	-0.0623
GATGTCTA	-0.123
CCTAGGAA	0.018
ATAAAGTG	0.113
ATAGTTTC	-0.159
CAATGTGG	-0.167
ACTAGATA	0.0586
CAGTACGC	0.0161
CTGACTCA	-0.0366
ATTTTGTC	0.0982
GGCGAGAC	-0.213
ACGCTAAA	0.0401
ACCTTCAT	0.18
GGCCATCA	-0.158
GATCTGAA	-0.359
CAGTCGAA	-0.0764
AAGTTATT	0.189
CGGGACTC	-0.223
ATCCCTGG	-0.149
ATTAAAAT	0.123
CTTATTCA	-0.211

Sequence	PBM E-score
TAATAAGA	0.085
CGTCGAGA	-0.15
AATAACTA	0.192
GACGTGGC	-0.0954
CGGAGTAA	-0.0235
AGAAATAT	0.134
ACGTCGCG	0.104
GTCATAAA	-0.011
GACGATCA	-0.109
CAAGTAGG	0.105
GACCTCTA	-0.102
AAACACGC	0.312
CAACTCCA	-0.0879
AATTGGAT	-0.0393
AACATCGC	0.0333
GCTTTGGA	0.0118
AGGATAAT	0.0447
GAAGTCTA	-0.256
ACCAGGCG	-0.221
ATGCAAGA	0.209
TGTGCGAA	-0.0504
AACATCTT	-0.0445
AGCATCGA	0.0686
AAAACATT	0.187
CCATTAAG	-0.138

Sequence	PBM E-score
TCCCACAA	-0.147
CGGTAGTC	-0.299
GCAATGAC	0.0358
AAGTCTTG	0.121
CGGGGCTA	-0.291
CTTTACTC	0.247
ACGCCCGG	-0.159
GGGTTTTA	0.151
TCCTTAAA	0.118
CTGCTCCC	-0.199
AGTACCCA	0.0368
CACCCTCA	-0.23
AAAAGCTA	-0.0237
ATAAAGTA	0.189
AAACCTGG	0.0922
CACGAGCA	-0.0469
CGTGAGAC	-0.0998
GATCAACA	0.218
AATCTCGG	-0.0615
ATCCGCGC	-0.0348
TCCGCAGA	-0.294
ATGTTACG	0.228
ACTCGCAA	0.127
CAGCCTCC	-0.249
AGAGGAAG	-0.112

Sequence	PBM E-score
CTCCAAGC	0.0273
GGGCGCGA	-0.105
CATACATG	0.291
AGCCCCGG	-0.135
GGCCTCAA	0.00845
CCCGCGGC	-0.266
CCCTCAGC	-0.323
AAATCACG	0.0517
GGCCCCCA	-0.276
CTACTAGC	0.0344
ACGACCCC	-0.219
CAGATGAC	-0.0736
ACAACAGT	-0.0268
AACGGCAT	-0.00767
CTCAGCGC	-0.0661
GACTTACC	-0.0893
GGGGGGTA	-0.204
AACAATTG	0.121
ACTCAAAC	0.0499
CACCTAGC	-0.153
GTGATATA	-0.122
ACTGAGTC	-0.0968
ATGAAGCC	-0.0612
TCTTCACA	0.169
CGCACAAC	0.0497

Sequence	PBM E-score
ATCTCCGA	-0.0589
ATCCCGGG	-0.052
CCGAGTAG	-0.0936
CAGCTGAA	-0.0396
AGGAATTG	0.053
GGCCGCGA	-0.285
GACGCTAC	-0.0985
ACGGAAAG	0.0318
GATGCTGA	-0.305
CCAACACG	0.299
GCCTGTCC	0.034
CGGACGAG	-0.0659
AATGAATA	0.00325
GTACCGCA	-0.00578
ACTAACCT	0.0108
CTTACCAA	0.0403
CTATACCC	-0.0192
TGTCACAA	0.08
GCCCGCGA	-0.199
CAGGGGGC	-0.249
AGCGGTAG	-0.173
CCGCGTTC	0.0486
